Measured values reported in article PMC2587708.
Results are given in words; binding and its absence hold for the method and conditions named. In cells and extracts the contact can be indirect. Some entries that bind do so weakly or less than the wild type. Tags and fused reporters may be left off the sequences shown.

The chains behind the UniProt entries cited, without tags or fusion partners. Where a name states a change or a piece, a line headed by the entry shows the natural chain unless it says otherwise.
UniProt P42003: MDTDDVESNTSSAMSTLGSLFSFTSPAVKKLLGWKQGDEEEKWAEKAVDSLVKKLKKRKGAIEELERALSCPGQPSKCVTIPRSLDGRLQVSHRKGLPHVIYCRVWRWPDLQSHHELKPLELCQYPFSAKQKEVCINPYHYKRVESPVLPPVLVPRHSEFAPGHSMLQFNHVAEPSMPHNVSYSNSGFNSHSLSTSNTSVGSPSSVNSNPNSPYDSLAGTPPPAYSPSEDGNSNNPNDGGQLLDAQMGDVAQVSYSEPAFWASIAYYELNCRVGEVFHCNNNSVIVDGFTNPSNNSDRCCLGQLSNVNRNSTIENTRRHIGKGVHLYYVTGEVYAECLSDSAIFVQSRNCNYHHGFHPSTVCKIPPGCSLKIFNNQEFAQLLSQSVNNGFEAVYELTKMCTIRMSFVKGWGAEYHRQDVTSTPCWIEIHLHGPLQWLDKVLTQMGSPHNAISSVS

T1: dTcf, Myc-tagged, full length (Drosophila) (UniProt P91943)
T1 sequence: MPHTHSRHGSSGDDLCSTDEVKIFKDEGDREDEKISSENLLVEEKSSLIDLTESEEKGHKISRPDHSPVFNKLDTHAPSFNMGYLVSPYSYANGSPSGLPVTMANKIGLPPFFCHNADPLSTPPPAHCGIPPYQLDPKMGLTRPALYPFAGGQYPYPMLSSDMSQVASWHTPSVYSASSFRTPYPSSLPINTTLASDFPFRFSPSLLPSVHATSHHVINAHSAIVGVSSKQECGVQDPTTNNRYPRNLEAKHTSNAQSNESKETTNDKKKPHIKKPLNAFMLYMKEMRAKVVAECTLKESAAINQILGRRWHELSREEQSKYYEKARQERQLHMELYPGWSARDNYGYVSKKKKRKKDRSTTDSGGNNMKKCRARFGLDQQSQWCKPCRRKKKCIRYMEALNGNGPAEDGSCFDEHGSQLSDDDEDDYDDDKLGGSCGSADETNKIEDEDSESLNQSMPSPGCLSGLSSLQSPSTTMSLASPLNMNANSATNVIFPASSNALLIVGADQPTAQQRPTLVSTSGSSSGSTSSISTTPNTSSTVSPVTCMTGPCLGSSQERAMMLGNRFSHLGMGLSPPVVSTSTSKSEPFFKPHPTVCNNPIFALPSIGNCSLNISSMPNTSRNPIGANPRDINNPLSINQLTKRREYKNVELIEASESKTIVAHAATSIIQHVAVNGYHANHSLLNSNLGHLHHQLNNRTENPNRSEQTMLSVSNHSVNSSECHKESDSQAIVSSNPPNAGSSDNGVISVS

T2: dTcfΔC (a.a. 1-394), Myc-tagged (Drosophila) (UniProt P91943)
T2 sequence: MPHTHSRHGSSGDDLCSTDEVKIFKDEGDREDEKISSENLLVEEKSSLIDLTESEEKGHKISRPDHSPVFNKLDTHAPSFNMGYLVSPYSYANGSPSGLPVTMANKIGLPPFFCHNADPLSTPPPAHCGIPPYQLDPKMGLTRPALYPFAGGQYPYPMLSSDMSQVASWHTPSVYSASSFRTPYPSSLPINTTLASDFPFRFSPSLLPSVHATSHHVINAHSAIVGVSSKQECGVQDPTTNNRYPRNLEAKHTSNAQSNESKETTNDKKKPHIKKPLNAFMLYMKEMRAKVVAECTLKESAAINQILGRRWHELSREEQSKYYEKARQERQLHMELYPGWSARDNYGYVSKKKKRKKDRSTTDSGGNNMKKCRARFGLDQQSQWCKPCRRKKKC

T3: dTcfΔC1 (a.a. 1-522), Myc-tagged (Drosophila) (UniProt P91943)
T3 sequence: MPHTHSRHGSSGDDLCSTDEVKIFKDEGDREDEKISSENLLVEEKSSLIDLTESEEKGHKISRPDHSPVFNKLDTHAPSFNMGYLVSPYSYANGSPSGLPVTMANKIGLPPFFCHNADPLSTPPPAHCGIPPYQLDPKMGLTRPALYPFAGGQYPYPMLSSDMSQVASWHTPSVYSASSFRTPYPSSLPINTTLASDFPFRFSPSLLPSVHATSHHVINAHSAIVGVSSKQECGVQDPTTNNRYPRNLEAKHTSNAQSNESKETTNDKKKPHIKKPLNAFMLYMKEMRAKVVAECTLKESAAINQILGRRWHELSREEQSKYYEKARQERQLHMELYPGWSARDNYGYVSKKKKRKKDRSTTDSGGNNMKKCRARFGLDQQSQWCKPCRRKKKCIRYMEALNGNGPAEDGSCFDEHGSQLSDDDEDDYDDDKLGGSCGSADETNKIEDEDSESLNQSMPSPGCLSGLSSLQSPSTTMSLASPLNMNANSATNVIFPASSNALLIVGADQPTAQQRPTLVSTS

T4: dTcfΔHMG (a.a. 1-244), Myc-tagged (Drosophila) (UniProt P91943)
T4 sequence: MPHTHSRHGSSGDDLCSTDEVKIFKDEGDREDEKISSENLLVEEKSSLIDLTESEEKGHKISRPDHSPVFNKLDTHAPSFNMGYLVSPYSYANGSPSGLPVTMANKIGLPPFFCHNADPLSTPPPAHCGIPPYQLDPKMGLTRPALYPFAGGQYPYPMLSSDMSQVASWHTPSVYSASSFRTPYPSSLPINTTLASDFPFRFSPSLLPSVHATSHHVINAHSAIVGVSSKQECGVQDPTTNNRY

T5: Armadillo (Arm; β-catenin), HA-tagged (Drosophila) (UniProt P18824)
T5 sequence: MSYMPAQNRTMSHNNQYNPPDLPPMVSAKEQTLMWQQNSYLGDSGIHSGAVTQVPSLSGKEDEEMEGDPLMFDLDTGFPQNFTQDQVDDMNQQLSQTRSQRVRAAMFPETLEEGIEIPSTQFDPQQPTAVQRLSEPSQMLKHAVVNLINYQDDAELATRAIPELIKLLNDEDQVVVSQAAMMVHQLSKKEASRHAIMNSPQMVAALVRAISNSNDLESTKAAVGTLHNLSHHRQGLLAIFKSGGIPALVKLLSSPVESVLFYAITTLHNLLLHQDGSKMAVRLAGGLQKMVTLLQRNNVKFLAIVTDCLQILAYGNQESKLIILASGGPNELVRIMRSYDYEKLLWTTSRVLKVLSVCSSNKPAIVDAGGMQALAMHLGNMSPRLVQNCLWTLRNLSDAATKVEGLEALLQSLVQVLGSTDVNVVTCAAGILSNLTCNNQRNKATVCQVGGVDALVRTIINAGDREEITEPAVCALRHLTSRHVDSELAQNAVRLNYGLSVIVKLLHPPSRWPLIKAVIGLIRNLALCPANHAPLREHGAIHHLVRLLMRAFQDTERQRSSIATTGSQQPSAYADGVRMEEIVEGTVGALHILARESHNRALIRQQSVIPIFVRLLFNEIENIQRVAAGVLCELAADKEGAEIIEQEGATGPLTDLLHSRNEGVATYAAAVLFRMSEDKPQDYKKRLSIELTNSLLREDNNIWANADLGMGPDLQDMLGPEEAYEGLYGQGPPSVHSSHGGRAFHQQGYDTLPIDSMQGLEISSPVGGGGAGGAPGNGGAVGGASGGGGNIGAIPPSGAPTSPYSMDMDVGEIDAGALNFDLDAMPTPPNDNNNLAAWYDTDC

B1: Armadillo (Arm; β-catenin), HA-tagged (protein, UniProt P18824 1-843)
chain: T5 sequence

Legend:
[1] = biological target: T1, dTcf, Myc-tagged, full length (Drosophila); test: co-IP; HEK293 cells co-transfected with two tagged Drosophila constructs; lysates IP'd with anti-Myc, anti-T7 or anti-HA (IgG as control), immunoblot for the tags
[2] = biological target: T1, dTcf, Myc-tagged, full length (Drosophila); test: co-IP; HEK293 cells triply transfected with T7-Mad, Myc-dTcf and increasing amounts of HA-Arm; lysates IP'd with anti-Myc, immunoblot with anti-HA, anti-Myc and anti-T7
[3] = biological target: T2, dTcfΔC (a.a. 1-394), Myc-tagged (Drosophila); test: co-IP; HEK293 cells co-transfected with two tagged Drosophila constructs; lysates IP'd with anti-Myc, anti-T7 or anti-HA (IgG as control), immunoblot for the tags
[4] = biological target: T3, dTcfΔC1 (a.a. 1-522), Myc-tagged (Drosophila); test: as above
[5] = biological target: T4, dTcfΔHMG (a.a. 1-244), Myc-tagged (Drosophila); test: as above
[6] = biological target: T5, Armadillo (Arm; β-catenin), HA-tagged (Drosophila); test: as above
[7] = biological target: T5, Armadillo (Arm; β-catenin), HA-tagged (Drosophila); test: co-IP; lysates of transfected cells expressing HA-Arm, Myc-dTcf and T7-Mad; IP'd with anti-T7 or with anti-HA, immunoblot for the tags
[8] = biological target: T1, dTcf, Myc-tagged, full length (Drosophila); test: co-IP; HEK293 cells triply transfected with HA-Arm, Myc-dTcf and increasing amounts of T7-Mad; lysates IP'd with anti-Myc, immunoblot with anti-HA, anti-Myc and anti-T7
[9] = biological target: Mothers against Dpp (Mad), T7-tagged, full length (Drosophila) (UniProt P42003); test: co-IP; lysates of transfected cells expressing HA-Arm, Myc-dTcf and T7-Mad; IP'd with anti-T7 or with anti-HA, immunoblot for the tags

Row | Molecule | binding [1] | binding [2] | binding [8] | also measured
1 | MadΔMH2 (a.a. 1-256), T7-tagged (from UniProt P42003 1-256) (domain or fragment) | no binding |  |  | 
2 | MadΔMH1 (a.a. 157-455), T7-tagged (from UniProt P42003 157-455) (domain or fragment) | binds |  |  | 
3 | Mad linker (a.a. 157-256), T7-tagged (from UniProt P42003 157-256) (domain or fragment) | no binding |  |  | 
4 | Mothers against Dpp (Mad), T7-tagged, full length (from UniProt P42003 1-455) | binds | binds | binds | binding [3]: binds; binding [4]: binds; binding [5]: no binding; binding [6]: no binding; binding [7]: no binding
5 | B1 |  | binds | binds | binding [9]: no binding
